Measurements reported in PubChem BioAssay AID1159614 (National Center for Advancing Translational Sciences (NCATS), 2016).
Hit rate of the full screen: of about 45,000 compounds, about 65 (0.1%) were called active. The call rests on the fitted dose curve; in most records, active means well fitted activation curve with a large enough effect; inconclusive means small, poorly fitted or top-dose-only effect; inactive means no such curve, though single readings can be large or run the other way. Some of the results follow.

Molecular target: Galactocerebrosidase (Homo sapiens) (UniProt P54803)
Experiment: A Novel Cell-Based Assay to Identify Small Molecules for B -Galactocerebrosidase; further: 0% is about no effect; nearly all actives have a fitted effect of over 65% in size
Details: 145M-Twi-hGALC-G270D cells, HMU-beta-Gal fluorescence, 48 h; series mostly up to 57.5 µM; activation: at the top concentration
In short: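 qHTS, 1536-well; 145M-Twi-hGALC-G270D cells (WT line also made) in DMEM/F12 + 10% FBS; compound incubation on live cells; HMU-β-gal 0.1 mM final, pH 5.2, NaTC; carbonate stop; fluorescence increase = enhanced residual activity.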

Chain of UniProt P54803 (P54803 whole entry, looked up): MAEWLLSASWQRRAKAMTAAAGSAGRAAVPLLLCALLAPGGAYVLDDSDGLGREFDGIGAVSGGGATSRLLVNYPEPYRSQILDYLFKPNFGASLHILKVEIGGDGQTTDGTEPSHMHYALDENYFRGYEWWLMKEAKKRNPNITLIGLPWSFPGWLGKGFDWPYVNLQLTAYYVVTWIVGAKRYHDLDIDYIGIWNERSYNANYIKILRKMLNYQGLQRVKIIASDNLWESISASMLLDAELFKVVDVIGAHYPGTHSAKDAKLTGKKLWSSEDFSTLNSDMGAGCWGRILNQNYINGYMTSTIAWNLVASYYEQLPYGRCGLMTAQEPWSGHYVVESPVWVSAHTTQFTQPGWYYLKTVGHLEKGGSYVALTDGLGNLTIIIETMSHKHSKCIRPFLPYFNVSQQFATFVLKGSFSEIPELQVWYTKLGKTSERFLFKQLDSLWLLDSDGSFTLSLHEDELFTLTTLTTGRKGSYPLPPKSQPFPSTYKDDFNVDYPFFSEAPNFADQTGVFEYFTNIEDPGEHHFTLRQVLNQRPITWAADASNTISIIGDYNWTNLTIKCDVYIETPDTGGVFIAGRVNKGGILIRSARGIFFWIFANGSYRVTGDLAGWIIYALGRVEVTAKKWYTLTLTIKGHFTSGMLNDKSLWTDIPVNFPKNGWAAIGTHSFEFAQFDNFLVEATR

Row | Structure (SMILES) | activation
1 | CCOC(=O)NNc1ccc(N(CC)CC(C)O)nn1 (stereo unspecified) | inactive: -7.57%
2 | COc1ccc2c(CNCc3cccs3)c(C(=O)O)n(Cc3cccc(F)c3)c2c1 | inactive: 5.93%
3 | Cc1cc(/C=C(\C#N)C(=O)Nc2ccccc2)c(C)n1-c1ccc(F)cc1 | inactive: -6.2%
4 | COC(=O)c1ccccc1NC(=O)c1sc2nc(C)cc(C)c2c1NC(=O)c1ccccc1Cl | inactive: -17.3%
5 | O=C(Cc1ccccc1)Nc1sc2c(c1C(=O)Nc1ccccc1Cl)CCCC2 | inactive: -17.8%
6 | COc1cc(NC(=O)c2nc(-c3ccc(Cl)cc3)n3c2CCCCC3)cc(OC)c1OC | inactive: -17.4%
7 | COc1ccc(CNC(=O)Cn2ccc3cc(S(=O)(=O)N4CCCC4)ccc32)c(OC)c1 | inactive: -14.7%
8 | CCn1c(=O)n(-c2ccc3c(c2)OCO3)c2nc(-c3cc(OC)ccc3OC)nc(C(N)=O)c21 | inactive: -5.48%
9 | Cc1cccc(C(=O)Nc2ccc3nc(SCC(=O)N4CCc5ccccc54)sc3c2)c1 | inactive: -7.81%
10 | COc1ccc(OC)c(-c2nnc3n(CCc4ccccc4)c(=O)c4ccccc4n23)c1 | inactive: -11.6%
11 | COc1ccc(CNC(=O)c2cc(C3CC3)nc3c2c(C)nn3-c2cccc(Cl)c2C)cc1 | inactive: -15.7%
12 | COc1ccc(NC(=O)c2ncoc2-c2ccco2)cc1Cl | inactive: 7%
13 | CC(CNC(=O)c1ccc2nc(CCc3ccccc3)oc2c1)c1ccccc1 (stereo unspecified) | inactive: -16.7%
14 | CCOC(=O)c1cccc(NC(=O)C2CCN(S(=O)(=O)c3c(C)noc3/C=C/c3ccc(C)cc3)CC2)c1 | inactive: -15.4%
15 | CCOc1ccc2oc(=O)cc(CN3CCN(C(=O)c4cccc(Cl)c4)CC3)c2c1 | inactive: -0.901%
16 | COc1ccc(CNC(=O)c2ccc(NC(=O)N3CCSc4ncccc43)cc2)c(OC)c1 | inactive: -11.9%
17 | Cc1ccccc1C(=O)Nc1cccc(C(=O)OCc2cc(=O)n3c(C)csc3n2)c1 | inactive: -3.33%
18 | Cc1ccc(C)c(Nc2nn3c(=O)c4ccc(C(=O)N(C)Cc5ccccc5)cc4nc3s2)c1 | inactive: -11.1%
19 | CCOC(=O)c1sc2ncn(CC(=O)Nc3cc(C)cc(C)c3)c(=O)c2c1C | inactive: -19%
20 | COC(=O)c1ccccc1NC(=O)Cn1c(=O)cc(-c2ccccc2)c2c(C)nn(C)c21 | inactive: -12.4%
21 | CCN(CC)C(=O)Cn1c(=O)n(CCCCCC(=O)Nc2ccccc2)c(=O)c2sccc21 | inactive: -22.1%
22 | NC(=O)C(=O)N/N=C/c1ccc([N+](=O)[O-])o1 | inactive: -13.3%
23 | O=C(NCc1ccccc1F)c1cc2ccccn2n1 | inactive: 0.098%
24 | Cc1ccc2oc(=O)c3cc(C(=O)NCc4ccc(Cl)cc4)sc3c2c1 | inactive: -17.6%

Row | Structure (SMILES) | activation
25 | Cc1ccc(NC(=O)C2CCCN2S(=O)(=O)c2cccc3nsnc23)c(Br)c1 (stereo unspecified) | inactive: -16.7%
26 | Cc1ccc(CN2CCc3nc(N4CCN(c5ccccc5F)CC4)ncc3C2)s1 | inactive: -6.37%
27 | COc1ccc(-c2csc3nc(-c4ccc(F)cc4)oc(=O)c23)cc1OC | inactive: -17%
28 | Cc1ccc(-c2noc(CSc3nnc(C)n3-c3ccc(F)cc3)n2)cc1 | inactive: -15.5%
29 | Cc1cccc(C)c1NC(=O)CCS(=O)(=O)c1ccc2c(c1)n(C)c(=O)c(=O)n2C | inactive: 18.8%
30 | COc1ccc(CNC(=O)c2ccc(NC(=O)N3CCCCc4ccccc43)cc2)c(OC)c1 | inactive: -2.11%
31 | Cc1cc(SCC(=O)NCc2ccccc2Cl)nc(=O)[nH]1 | inactive: -18.5%
32 | Cc1cccc(-c2nc(C)c(CCNC(=O)C(=O)Nc3c(C)cc(C)cc3C)s2)c1 | inactive: -39.7%
33 | CCOC(=O)c1ccccc1NC(=O)Cn1c(=O)n(Cc2ccc(C(=O)NCc3ccc4c(c3)OCO4)cc2)c(=O)c2ccccc21 | inactive: -12.5%
34 | COc1ccc(C(=O)Nc2cccc(-c3nc4cccnc4s3)c2C)c(OC)c1 | inactive: -5.58%
35 | CCOc1ccc(NC(=O)C2CCCN(S(=O)(=O)c3ccc(Br)s3)C2)cc1 (stereo unspecified) | inactive: -3.18%
36 | Cc1ccc(-c2c(C)n3c4c(=O)n(C)c(=O)n(C)c4nc3n2CCCO)cc1 | inactive: -1.82%
37 | O=C(CCn1cnnn1)Nc1ccccc1 | inactive: -8.81%
38 | O=C(CSc1nc2c([nH]c3ccccc32)c(=O)n1-c1ccccc1)Nc1ccccc1F | inactive: -12%
39 | COc1cccc(Cn2cnc3c2c(=O)n(C)c(=O)n3C)c1 | inactive: -21.4%
40 | Cc1c2cnn(CC(=O)NCc3ccc(F)cc3)c(=O)c2c(C)n1Cc1ccccc1Cl | inactive: -7.62%
41 | COc1ccc(-c2nc(C)c(CCNC(=O)c3ccccc3Br)s2)cc1OC | inactive: -21.3%
42 | COCCCNC(=O)C1CCN(c2ncnc3c2nc2n3CCCCC2)CC1 | inactive: -11.1%
43 | O=C(Nc1cccc(C(F)(F)F)c1)c1ccc(F)c(S(=O)(=O)N2CCc3ccccc3C2)c1 | inactive: -10.4%
44 | CCOc1cc(Br)c(C2C(C(=O)OC)=C(C)NC3=C2C(=O)c2ccccc23)cc1OCC (stereo unspecified) | inactive: 1.76%
45 | CC(=O)N1CCCc2cc(S(=O)(=O)N3CCC(N(C)C(C)C)CC3)ccc21 | inactive: -14.5%
46 | Cc1cccc(C(=O)NC(=O)Nc2ccc(-n3nc(C(F)(F)F)cc3C(F)(F)F)cc2)c1 | inactive: -20.2%
47 | CC(=O)N1c2c(cc(Br)cc2S(=O)(=O)Nc2ccccc2C)CC1C (stereo unspecified) | inactive: -7.15%
48 | CCC(C)NC(=O)C1CCN(S(=O)(=O)c2ccc3c(ccn3CC)c2)CC1 (stereo unspecified) | inactive: -10.9%

Row | Structure (SMILES) | activation
49 | Cc1nc2c(C(=O)NCCC(C)C)cnn2c(C)c1Cc1c(F)cccc1Cl | inactive: 28%
50 | COc1ccc2c(c1)c1c(c(=O)n(-c3ccc(C)cc3)c(=O)n1CC(=O)Nc1cc(C)ccc1C)n2C | inactive: -5.52%
51 | CC1CCCN(Cc2c(O)ccc3c(=O)c(-c4ccc(Cl)cc4)c(C(F)(F)F)oc23)C1 (stereo unspecified) | inactive: -5.45%
52 | COc1cc2c(cc1OC)C(c1cc(OC)c(O)c(OC)c1)CC(=O)N2 (stereo unspecified) | inactive: -6.22%
53 | COc1cccc2sc(N(Cc3cccnc3)C(=O)c3ccc(S(=O)(=O)N(C)C)cc3)nc12 | inactive: -3.26%
54 | CCOC(=O)C1CCCN(C(=O)C2CCN(S(=O)(=O)c3c(C)noc3/C=C/c3ccc(C)cc3)CC2)C1 (stereo unspecified) | inactive: -10.1%
55 | COc1ccccc1CNC(=O)c1cc2cc(S(=O)(=O)N3CCCCC3)ccc2n1C | inactive: -16.2%
56 | O=C(O)c1ccccc1NC(=O)N1c2ccccc2Sc2ccccc21 | inactive: 0.967%
57 | COc1ccc(-c2cc(C(F)(F)F)nc(SCC(=O)Nc3ccc(C(C)=O)cc3)n2)cc1 | inactive: -20.8%
58 | COc1nnc(-c2ccc(N3CCCCC3)c(NC(=O)c3ccc(Cl)cc3)c2)c2ccccc12 | inactive: -3.39%
59 | CCc1cc(=O)[nH]c(SCc2nc(-c3ccccc3C)no2)n1 | inactive: 8.39%
60 | CCOC(=O)C1CCN(c2ncnc3c2c(-c2ccccc2)cn3-c2ccc(C)c(Cl)c2)CC1 | inactive: -9.85%
61 | Cc1cc(C)cc(N2C(=O)CS(=O)(=O)C23C(=O)N(Cc2ccccc2)c2ccccc23)c1 (stereo unspecified) | inactive: -21.4%
62 | Cc1cc(OCC(=O)Nc2ncn[nH]2)c(C)c(C)c1Br | inactive: -4.47%
63 | CC(C)(O)c1ccccc1CC[C@@H](SCC1(CC(=O)O)CC1)c1cccc(/C=C/c2ccc3ccc(Cl)cc3n2)c1 | inactive: -14.2%
64 | O=C(/C=C/c1cn(CC(O)CN2CCc3ccccc32)c2ccccc12)c1ccc(Br)cc1 (stereo unspecified) | inactive: -18.2%
65 | CCC(=O)N1c2ccc(S(=O)(=O)NCCc3ccccc3)cc2CC1C (stereo unspecified) | inactive: -7.45%
66 | O=C1NC(=O)C(c2ccccc2)(c2ccccc2)N1 | inactive: -8%
67 | COc1ccc(OC)c(NC(=O)c2nc(SCc3ccc(F)cc3)ncc2Cl)c1 | inactive: 8.86%
68 | O=C(NCCc1csc(-c2ccc(F)cc2)n1)C(=O)Nc1ccc(Cl)cc1 | inactive: -16.4%
69 | CCOC(=O)c1[nH]c(C)c(CCC(=O)NCc2ccc(OC(C)C)cc2)c1C | inactive: -13.3%
70 | COc1ccc(C)cc1NC(=O)C1CCN(S(=O)(=O)c2cccc3nonc23)CC1 | inactive: -5.93%
71 | Cc1ccc(CNS(=O)(=O)c2c(C(=O)N3CCC(C)CC3)c(C)n(C)c2C)cc1 | inactive: -0.345%
72 | COC(=O)c1ccccc1NC(=O)N(Cc1ccc(C)cc1)Cc1cccn1-c1nnc(N2CCCC2=O)s1 | inactive: -8.08%

Row | Structure (SMILES) | activation
73 | Cc1cccc(NC(=O)CSc2nnc3c4ccccc4n(C)c3n2)c1 | inactive: -9.05%
74 | CCc1ccc(S(=O)(=O)c2cn(CC(=O)Nc3cccc(C)c3)c3ccc(Cl)cc3c2=O)cc1 | inactive: -12.4%
75 | Cc1cc(Nc2cccc(O)c2)c2cccc(Br)c2n1 | inactive: -7.4%
76 | Cc1sc2ncn(CC(=O)Nc3ccc(C(F)(F)F)cc3)c(=O)c2c1S(=O)(=O)N1CCN(C)CC1 | inactive: -5.44%
77 | CCCc1cc(=O)[nH]c2nnc(SCCC(C)C)n12 | inactive: -8.92%
78 | COc1cc(NC(=O)CSc2ccc(-c3sc(-c4ccccc4)nc3C)nn2)cc(OC)c1 | inactive: -11.2%
79 | COC(=O)c1c(NC(=O)COc2ccc(OC)cc2)sc2c1CCC(C)C2 (stereo unspecified) | inactive: -19.3%
80 | CCCN1C(=O)C2(c3ccccc31)c1c(oc3cc(C)c(C)cc3c1=O)C(=O)N2CCCOC (stereo unspecified) | inactive: -5.06%
81 | CCC(=O)N1c2ccccc2CC1C(=O)NCCc1ccc(OC)cc1OC (stereo unspecified) | inactive: -11.3%
82 | CCn1cc(S(=O)(=O)c2ccc(C)cc2C)c(=O)c2cc(F)c(N3CCCC3)cc21 | inactive: -6.23%
83 | Cc1ccc(CSc2nnc3[nH]c(=O)cc(C)n23)cc1 | inactive: -9.28%
84 | CC(C)Oc1ccc(CNC(=O)C2CCCN(S(=O)(=O)c3ccc4c(ccn4C)c3)C2)cc1 (stereo unspecified) | inactive: -19.8%
85 | CCCn1cc(S(=O)(=O)c2ccc(OC)cc2)c(=O)c2cc(F)c(N3CCCCCC3)cc21 | inactive: -12.9%
86 | COc1ccc(CN2CCN(S(=O)(=O)c3ccccc3)CC2)c(OC)c1 | inactive: -7.71%
87 | CN1Cc2c(N)cccc2C(c2ccccc2)C1 (stereo unspecified) | inactive: -17.4%
88 | NC(=O)NNc1ccccc1 | inactive: -25.3%
89 | CCOC(=O)CNc1ncnc2c1nnn2C | inactive: -3.34%
90 | CC(=O)Nc1nonc1-c1nnc(SCc2ccc(C)cc2)n1C | inactive: -6.99%
91 | COc1ccc(OC)c(NC(=O)[C@H](Cc2ccccc2)N2Cc3ccccc3C2=O)c1 | inactive: -6.73%
92 | O=C(CC1C(=O)N(c2ccccc2)C(=O)N1CCc1cccs1)Nc1ccc(Cl)cc1 (stereo unspecified) | inactive: -9.18%
93 | Cc1c(C(=O)Nc2cccc(C(F)(F)F)c2)oc2ccc(S(=O)(=O)N(C)C3CCCCC3)cc12 | inactive: -9.19%
94 | CCNC(=O)c1ccc(-n2c(-c3ccccc3)cc3c2CCCCC3)cc1 | inactive: -12.1%
95 | COc1cccc(CNC(=O)CCc2c(C)nn(-c3ccc(N4CCOCC4)nn3)c2C)c1 | inactive: -11.2%
96 | COc1cccc(-c2cc(C(=O)Nc3ccc(F)cc3)[nH]n2)c1 | inactive: -11.7%
